Results as given in the supplement of paper PMC7826260.
This is one part of the list. One pool of 16,384 single-stranded DNAs met each Rep nickase domain in vitro (1 h at 37 °C, 3 µM enzyme); the outer parts of the 90-letter strands are left off. Uncut reads are compared with the no-enzyme pool on a log2 scale; strong cutting gives strongly negative numbers. There is no active / inactive call. Because reads are shares of a total, they shift together; uncut strands gain when others are lost, and binding without cutting may add a little.

Key:
Assay in all cases: uncleaved DNA left, log2 of reads against the no-enzyme library (log2 ratio); higher = less cleavage (more negative = more Rep cleavage of the k-mer); sequences stand for … in CTCGTCCG…ACCGGAGA
[1] = system: T1, Rep nickase domain of Muscovy duck circovirus
T1 sequence (Rep 1-111, printed without the tag): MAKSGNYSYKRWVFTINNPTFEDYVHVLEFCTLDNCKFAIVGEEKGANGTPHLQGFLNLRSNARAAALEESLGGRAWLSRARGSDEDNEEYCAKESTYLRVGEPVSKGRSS
Method: (§1)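 A pool of 90-nt single-stranded DNAs with seven random bases just before the constant AC of the nick site (name = the seven bases) was cut by 3 µM recombinant His6-SUMO-tagged Rep nickase domain (300 nM DNA, 50 mM HEPES pH 8.0, 50 mM NaCl, 1 mM MnCl2, 1 h, 37 °C, three replicates). Uncut DNA was amplified and sequenced.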

[2] = system: T2, Rep nickase domain of banana bunchy top virus
T2 sequence (Rep 1-94, printed without the tag): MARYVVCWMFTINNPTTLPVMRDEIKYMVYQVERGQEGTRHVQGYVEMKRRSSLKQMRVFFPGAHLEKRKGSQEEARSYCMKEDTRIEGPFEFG
Method: as §1

[3] = system: T3, Rep nickase domain of cabbage leaf curl virus
T3 sequence (Rep 1-116, printed without the tag): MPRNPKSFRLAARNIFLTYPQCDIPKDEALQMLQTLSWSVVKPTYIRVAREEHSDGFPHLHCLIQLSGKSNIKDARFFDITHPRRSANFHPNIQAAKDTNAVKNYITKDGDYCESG
Method: as §1

[4] = system: T4, Rep nickase domain of chickpea chlorotic dwarf virus
T4 sequence (Rep 1-124, printed without the tag): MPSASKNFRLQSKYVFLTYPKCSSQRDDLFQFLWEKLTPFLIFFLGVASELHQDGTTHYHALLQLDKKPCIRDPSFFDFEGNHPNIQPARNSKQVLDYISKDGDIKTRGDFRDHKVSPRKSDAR
Method: as §1

[5] = system: T5, Rep nickase domain of faba bean necrotic yellows virus
T5 sequence (Rep 1-98, printed without the tag): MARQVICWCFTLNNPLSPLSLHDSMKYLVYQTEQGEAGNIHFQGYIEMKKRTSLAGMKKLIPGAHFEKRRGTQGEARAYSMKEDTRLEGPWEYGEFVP
Method: as §1

[6] = system: T6, Rep nickase domain of maize striate mosaic virus
T6 sequence (Rep 1-117, printed without the tag): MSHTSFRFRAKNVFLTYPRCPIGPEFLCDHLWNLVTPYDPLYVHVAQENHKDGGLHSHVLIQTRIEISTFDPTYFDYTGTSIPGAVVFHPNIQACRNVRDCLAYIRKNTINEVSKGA
Method: as §1

[7] = system: T7, Rep nickase domain of porcine circovirus 2
T7 sequence (Rep 2-116, printed without the tag): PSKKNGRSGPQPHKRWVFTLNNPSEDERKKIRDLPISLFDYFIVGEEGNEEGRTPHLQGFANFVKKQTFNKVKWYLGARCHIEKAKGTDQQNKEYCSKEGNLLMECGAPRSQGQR
Method: as §1

[8] = system: T8, Rep nickase domain of tomato golden mosaic virus
T8 sequence (Rep 1-124, printed without the tag): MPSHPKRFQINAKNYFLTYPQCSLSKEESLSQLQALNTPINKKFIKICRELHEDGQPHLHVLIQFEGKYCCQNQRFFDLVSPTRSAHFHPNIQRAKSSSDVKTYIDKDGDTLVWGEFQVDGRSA
Method: as §1

[9] = system: T9, Rep nickase domain of tomato yellow leaf curl virus
T9 sequence (Rep 1-136, printed without the tag): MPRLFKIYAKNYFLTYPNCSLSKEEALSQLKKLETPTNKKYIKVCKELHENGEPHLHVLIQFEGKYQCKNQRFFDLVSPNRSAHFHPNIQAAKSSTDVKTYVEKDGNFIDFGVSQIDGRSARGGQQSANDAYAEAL
Method: as §1

[10] = system: T10, Rep nickase domain of wheat dwarf virus
T10 sequence (Rep 1-137, printed without the tag): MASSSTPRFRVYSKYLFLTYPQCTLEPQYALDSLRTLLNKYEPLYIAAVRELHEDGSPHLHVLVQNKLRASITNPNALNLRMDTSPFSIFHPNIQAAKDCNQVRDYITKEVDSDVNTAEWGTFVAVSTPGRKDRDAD
Method: as §1

Sequence | uncleaved DNA left (log2) [1] | uncleaved DNA left (log2) [2] | uncleaved DNA left (log2) [3] | uncleaved DNA left (log2) [4] | uncleaved DNA left (log2) [5] | uncleaved DNA left (log2) [6] | uncleaved DNA left (log2) [7] | uncleaved DNA left (log2) [8] | uncleaved DNA left (log2) [9] | uncleaved DNA left (log2) [10]
TCATTGA | 0.041 | -0.0124 | -0.559 | -0.617 | -0.00574 | -1.1 | 0.137 | -0.0398 | 0.0806 | -0.0289
GCTAAGC | -0.0701 | 0.0303 | -0.108 | -0.0739 | -0.0211 | -0.726 | 0.0425 | -0.0574 | -0.122 | -0.0475
GGCTCAG | 0.0738 | 0.0655 | 0.26 | 0.78 | 0.0571 | 0.832 | 0.182 | 0.043 | 0.0758 | 0.177
CCTGTAG | -0.00255 | -0.0902 | -0.903 | -0.361 | -0.27 | -1.16 | 0.0732 | -0.205 | -0.0727 | -0.309
CTGAATC | 0.141 | 0.0623 | -0.00889 | 0.2 | -0.0738 | -0.321 | 0.148 | -0.114 | -0.0172 | 0.128
ATTACCG | -0.0848 | 0.0502 | -0.851 | -1.57 | 0.0384 | -1 | 0.0043 | 0.0206 | -0.00691 | -0.00456
CAATTCA | -0.358 | 0.051 | -1.83 | -2.58 | -0.0821 | -1.27 | -1.12 | -0.31 | -0.0147 | -0.467
TACAGGG | 0.125 | 0.0735 | -0.117 | -0.191 | 0.177 | -0.507 | 0.262 | 0.143 | 0.138 | 0.104
TGTGGAC | 0.0722 | 0.0823 | 0.854 | 1.9 | -0.0549 | 2.22 | 0.2 | 0.131 | 0.11 | 0.166
CTTTTCT | -2.5 | -0.178 | -0.315 | -2.62 | -0.172 | -0.908 | -2.46 | -0.184 | -0.126 | -0.0577
GATCCGT | 0.00457 | 0.0131 | 0.0576 | -0.0774 | -0.0123 | -0.406 | -0.00437 | -0.0237 | 0.0497 | 0.0315
GCGAGTG | -0.0616 | -0.0401 | -0.179 | 0.332 | -0.168 | 1.53 | -0.0167 | -0.146 | -0.102 | -0.0743
ATGATCC | 0.0208 | -0.0594 | 0.0658 | 0.254 | -0.00248 | 0.0831 | 0.0574 | -0.00955 | -0.074 | 0.113
TACCATT | 0.0552 | -0.142 | -1.38 | -2.86 | 0.0742 | -1.04 | -3.06 | -0.217 | -0.0167 | -0.125
TGTGCGA | -0.118 | -0.0905 | -0.811 | -0.0462 | -0.0258 | -0.822 | 0.0323 | -0.0799 | 0.0317 | -0.0875
GATCAAA | 0.162 | 0.247 | 0.464 | 0.965 | 0.169 | 1.13 | 0.276 | 0.183 | 0.189 | 0.296
CAGGGGC | -0.0406 | 0.0415 | 0.495 | 1.06 | 0.0243 | 1.15 | 0.216 | 0.119 | 0.0478 | 0.11
AGGATAC | 0.123 | 0.095 | 0.0277 | 0.306 | 0.176 | -0.338 | 0.273 | 0.15 | 0.0161 | 0.165
CATAGCC | 0.0981 | 0.0853 | -0.317 | -0.36 | 0.0594 | -1.1 | 0.193 | 0.0475 | 0.0937 | -0.0413
TAATAGT | -4.13 | -3.09 | -5.37 | -3.2 | -0.732 | -4.23 | -4.51 | -4.4 | -3.61 | -4.87
TACGAAG | 0.0952 | 0.0757 | -0.665 | -0.686 | 0.0102 | -0.905 | 0.26 | 0.0101 | 0.0286 | -0.161
GCGTTCC | -0.0761 | -0.0464 | 0.225 | 0.577 | -0.105 | 0.698 | 0.0722 | -0.0782 | 0.0301 | 0.00164
TTATGAG | -0.0179 | -0.17 | -0.873 | -0.473 | -0.0837 | -1.1 | 0.0935 | -0.133 | -0.12 | -0.124
CCTAGCG | -0.0284 | 0.00453 | -0.829 | 0.281 | 0.0239 | -0.689 | 0.106 | -0.091 | 0.0925 | -0.131
GGGTTTG | 0.111 | 0.0973 | 0.737 | 1.48 | 0.0851 | 1.86 | 0.228 | 0.112 | 0.127 | 0.0667
AAGGATA | 0.0487 | -0.0338 | 0.215 | 1.39 | -0.0358 | 1.5 | 0.0782 | 0.0705 | -0.214 | 0.0145
CGCTCGG | -0.0562 | 0.0499 | 0.357 | 0.96 | 0.0524 | 1.34 | 0.0532 | 0.0505 | -0.157 | -0.00508
CTGAAGG | 0.131 | -0.0604 | 0.151 | 0.919 | 0.112 | 0.3 | 0.104 | 0.1 | -0.154 | -0.00265
CCCGGGT | 0.0651 | -0.0599 | 0.223 | 0.686 | -0.102 | 1.28 | 0.0957 | 0.0371 | -0.0887 | -0.00734
GTCAGGC | 0.00605 | 0.073 | 0.32 | 0.879 | -0.0528 | 0.904 | 0.189 | 0.106 | 0.13 | 0.104
